In all, about 39,000 compounds went through this assay and about 220 (0.56%) showed activity. The list shows a part of the results.
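Further: static incubation at 37 °C against the wild-type strain, values averaged over two biological replicates.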

The experiment has as its system Escherichia coli K-12 BW25113. In words: relative growth (OD600 normalised to plate interquartile mean) (fraction); higher = less growth inhibition, active = 0.2 or less. Conditions: 50 µM; LB; incubation time: overnight (16-24 h).
On to `NCCN1CCO[C@H](c2ccccc2)C1`, for which the relative growth was inactive: 0.998.

On to `CCCNC(=O)C[C@@H]1CC[C@H]2[C@@H](COc3ccc(NC(=O)c4ccc5c(c4)OCO5)cc3C(=O)N2C)O1`, for which the relative growth was inactive: 1.02.

On to `C[C@@H]1CN([C@@H](C)CO)C(=O)c2cc(NC(=O)Cc3ccccc3)ccc2O[C@@H]1CN(C)Cc1ccc(-c2ccccc2)cc1`, for which the relative growth was inactive: 0.837.

On to `C[C@H](CO)N1C[C@H](C)[C@H](CN(C)Cc2ccc(-c3ccccc3)cc2)OCc2ccccc2-c2c(n(C)c3ccccc23)C1=O`, for which the relative growth is inactive: 1.03.

On to `O=C(C[C@@H]1CC[C@H]2[C@@H](COC[C@@H](O)CN2Cc2ccccc2F)O1)N[C@@H]1CCN(Cc2ccccc2)C1`, for which the relative growth is inactive: 0.994.

For `COc1ccc2c3c(n(c2c1)C)[C@H](CO)N(C[C@]13CCN(CC1)C(=O)C1CC1)C(=O)CN1CCOCC1`, the relative growth was inactive: 1.01.

As to `C[C@H]1CN([C@@H](C)CO)C(=O)CCCn2nncc2CO[C@H]1CN(C)C(=O)Nc1cccc(C(F)(F)F)c1`, the relative growth is inactive: 0.976.

`CC(C)NC[C@H]1CCC(=O)N1`: the relative growth was inactive: 1.01.

With `C[C@H](CO)N1C[C@H](C)[C@@H](CN(C)CC2CCCCC2)OCCCC[C@H](C)Oc2ccc(NC(=O)CCCCCC(=O)Nc3ccccc3N)cc2C1=O`, the relative growth is inactive: 0.845.

As to `C[C@@H]1CCCCO[C@@H](CN(C)C(=O)Nc2cccc3ccccc23)[C@@H](C)CN([C@@H](C)CO)C(=O)c2cc(NC(=O)Cc3ccccc3)ccc2O1`, the relative growth is inactive: 0.997.

Take `C[C@@H]1CN([C@@H](C)CO)C(=O)c2cc(NS(=O)(=O)c3ccc(Cl)cc3)ccc2O[C@@H](C)CCCCO[C@@H]1CN(C)C(=O)Nc1cccc2ccccc12`: the relative growth is inactive: 1.03.

Take `Cc1noc(C)c1NC(=O)Nc1ccc2c(c1)C(=O)N([C@@H](C)CO)C[C@@H](C)[C@H](CN(C)Cc1ccc(C(F)(F)F)cc1)OCCCC[C@H](C)O2`: the relative growth was inactive: 0.992.

For `C[C@@H]1CN([C@H](C)CO)C(=O)c2cc(C#CC3CCCC3)cnc2O[C@H]1CN(C)S(=O)(=O)c1cccc(F)c1`, the relative growth is inactive: 1.02.

For the compound `C[C@H]1CN([C@@H](C)CO)C(=O)Cc2cc(NC(=O)Nc3cccc4ccccc34)ccc2O[C@H]1CN(C)Cc1ccc2c(c1)OCO2`, the relative growth is inactive: 0.989.

Turning to `CSc1cnc2c(=O)[nH]c(=O)n(C)c2n1`, the relative growth is inactive: 0.971.

Turning to `COC(=O)[C@H]1CCCNC1=O`, the relative growth is inactive: 1.05.

As for `C[C@H]1CN([C@@H](C)CO)S(=O)(=O)c2ccc(-c3cccnc3)cc2O[C@@H]1CN(C)C(=O)c1cccc(F)c1`, the relative growth was inactive: 0.992.

Take `COc1ccc(cc1)S(=O)(=O)N1C[C@]2(C1)CN([C@H](CO)c1c2c2ccc(cc2n1C)OC)C(=O)c1cccnc1`: the relative growth is inactive: 0.984.

Take `C=C[C@@]1(C)CC(=O)[C@]2(O)[C@@]3(C)[C@@H](O)CCC(C)(C)[C@@H]3[C@H](O)[C@H](OC(C)=O)[C@@]2(C)O1`: the relative growth is inactive: 0.969.

Consider `Cn1c(=O)n(C)c2cc(CO)ccc21`, for which the relative growth is inactive: 0.989.

Take `NC(=O)c1c(Cl)ncc2c1NCC2`: the relative growth was inactive: 1.01.

Consider `C[C@H]1CCCCO[C@H](CN(C)Cc2ccc3c(c2)OCO3)[C@@H](C)CN([C@@H](C)CO)C(=O)c2cc(NC(=O)C3CCCCC3)ccc2O1`, for which the relative growth is inactive: 0.983.

In the case of `Cc1ccc(S(=O)(=O)N(C)C[C@H]2Oc3ccc(NC(=O)c4ccncc4)cc3C(=O)N([C@@H](C)CO)C[C@@H]2C)cc1`, the relative growth was inactive: 1.03.

`C[C@@H]1CN([C@H](C)CO)C(=O)c2cc(NC(=O)C3CCCCC3)ccc2O[C@@H](C)CCCCO[C@@H]1CN(C)C(=O)Cc1ccccc1`: the relative growth is inactive: 0.994.

For `C[C@@H]1CN([C@H](C)CO)C(=O)c2cc(NC(=O)c3ccncc3)ccc2O[C@@H](C)CCCCO[C@H]1CN(C)Cc1ccccc1`, the relative growth is inactive: 0.996.

As for `C[C@H](CO)N1C[C@H](C)[C@@H](CN(C)S(C)(=O)=O)OCCCC[C@H](C)Oc2ccc(NS(=O)(=O)c3cn(C)cn3)cc2C1=O`, the relative growth was inactive: 0.985.

For the compound `C[C@H](CO)N1C[C@H](C)[C@@H](CN(C)Cc2ccc(-c3ccccc3)cc2)Oc2c(NC(=O)Nc3ccc4c(c3)OCO4)cccc2C1=O`, the relative growth is inactive: 0.947.

As to `C=CC[C@@H](CC(=O)N[C@@H](CO)Cc1ccccc1)C(=O)N[C@H](COC(=O)[C@@H](CC=C)Cc1ccc(F)cc1)Cc1c[nH]c2ccccc12`, the relative growth is inactive: 1.05.

Regarding `C[C@@H]1CN([C@@H](C)CO)C(=O)c2cc(NC(=O)Cc3cn(C)c4ccccc34)ccc2O[C@@H]1CN(C)Cc1ccc(-c2ccccc2)cc1`, the relative growth was inactive: 1.03.

For the compound `C[C@@H]1CN([C@H](C)CO)C(=O)c2c(c3ccccc3n2C)-c2ccccc2CO[C@@H]1CN(C)Cc1cccc(C(F)(F)F)c1`, the relative growth was inactive: 1.04.

On to `O=C(C[C@H]1CC[C@H]2[C@@H](COC[C@@H](O)CN2C(=O)c2cccnc2)O1)NCC1CC1`, for which the relative growth was inactive: 0.988.

For `CO[C@H]1O[C@H](CO)[C@@H](OC(=O)c2ccc(Br)cc2)[C@@H]2OC(=O)[C@@H](Cc3ccccc3)C/C=C/C[C@H](Cc3ccccc3)C(=O)O[C@@H]12`, the relative growth is inactive: 0.988.

Consider `Cc1ccc(S(=O)(=O)N(C)C[C@@H]2Oc3ccc(NC(=O)CCN4CCOCC4)cc3CC(=O)N([C@H](C)CO)C[C@@H]2C)cc1`, for which the relative growth was inactive: 1.01.

On to `O=NN(CCCl)C(=O)NC1CCCCC1`, for which the relative growth was inactive: 1.07.

Consider `COc1ccc(S(=O)(=O)N(C)C[C@H]2OCCCC[C@@H](C)Oc3ccc(NC(=O)Nc4ccc5c(c4)OCO5)cc3C(=O)N([C@H](C)CO)C[C@@H]2C)cc1`, for which the relative growth is inactive: 1.

As to `C[C@@H]1CN([C@H](C)CO)C(=O)c2cc(NC(=O)CCN3CCOCC3)ccc2O[C@@H]1CN(C)Cc1ccc2c(c1)OCO2`, the relative growth is inactive: 1.01.

Consider `Cc1ccc(C(=O)N(CCCN)[C@@H](c2nc3cc(Cl)ccc3c(=O)n2Cc2ccccc2)C(C)C)cc1`, for which the relative growth is inactive: 0.972.

With `CO[C@H]1CN(C)C(=O)c2ccc(NS(=O)(=O)c3cn(C)cn3)cc2OC[C@@H](C)N(CC2CC2)C[C@H]1C`, the relative growth is inactive: 0.998.

As to `COc1ccccc1O`, the relative growth is inactive: 0.929.

Turning to `CCOC(=O)c1cc(C(=O)OCC)n(C)n1`, the relative growth was inactive: 1.

On to `C[C@@H]1CN([C@@H](C)CO)C(=O)c2cccc(NS(=O)(=O)c3ccc(Cl)cc3)c2O[C@@H]1CN(C)Cc1ccc(C(F)(F)F)cc1`, for which the relative growth is inactive: 1.02.

`C[C@@H]1CCCCO[C@H](CN(C)C(=O)Nc2ccc(C(F)(F)F)cc2)[C@H](C)CN([C@H](C)CO)C(=O)c2cc(NC(=O)Nc3ccc(F)cc3)ccc2O1`: the relative growth is inactive: 0.988.

Regarding `CCOC(=O)CCCCCC(=O)Nc1ccc2c(c1)C(=O)N([C@@H](C)CO)C[C@H](C)[C@H](CN(C)C(=O)Nc1ccc(F)cc1)OCCCC[C@H](C)O2`, the relative growth was inactive: 1.04.

Regarding `C[C@@H]1CCCCO[C@@H](CN(C)Cc2ccc(C(F)(F)F)cc2)[C@@H](C)CN([C@H](C)CO)C(=O)c2cc(NS(=O)(=O)c3cccs3)ccc2O1`, the relative growth was inactive: 0.996.

`CC(CO)(CO)NC(=O)NC1CCCCC1`: the relative growth was inactive: 0.937.

Regarding `Cc1ccc(S(=O)(=O)Nc2ccc3c(c2)C(=O)N([C@H](C)CO)C[C@H](C)[C@H](CN(C)S(C)(=O)=O)OCCCC[C@@H](C)O3)cc1`, the relative growth is inactive: 1.01.

As for `C[C@H](CO)N1C[C@H](C)[C@H](CN(C)C(=O)Nc2ccc3c(c2)OCO3)OCCCC[C@H](C)Oc2ccc(NS(=O)(=O)c3ccc(Cl)cc3)cc2C1=O`, the relative growth is inactive: 0.989.

Consider `Cc1cc(O)c(C(=O)NC(C(=O)NC2C(=O)N3C(C(=O)O)=C(CSc4nnnn4C)CSC23)c2ccc(O)cc2)cn1` (stereo not given), for which the relative growth was active: 0.0416.

For the compound `C[C@@H]1CN([C@@H](C)CO)C(=O)Cc2cc(NC(=O)CCC(F)(F)F)ccc2O[C@@H]1CN(C)S(=O)(=O)c1cn(C)cn1`, the relative growth is inactive: 0.999.

`C[C@@H]1CN([C@H](C)CO)C(=O)c2cc(NS(=O)(=O)c3cccs3)ccc2O[C@H]1CN(C)S(=O)(=O)c1cccs1`: the relative growth is inactive: 1.04.

As for `C[C@@H]1CN([C@@H](C)CO)C(=O)c2cc(NS(=O)(=O)c3ccc(F)cc3)ccc2O[C@@H](C)CCCCO[C@H]1CN(C)C(=O)Nc1ccccc1`, the relative growth is inactive: 1.

`O=C(C[C@@H]1CC[C@@H]2[C@H](COC[C@@H](O)CN2S(=O)(=O)c2ccc(F)cc2)O1)N[C@@H]1CCN(Cc2ccccc2)C1`: the relative growth is inactive: 0.986.

As for `C[C@H]1CCCCO[C@@H](CN(C)C(=O)Nc2ccc(F)cc2)[C@@H](C)CN([C@@H](C)CO)C(=O)c2cc(NC(=O)c3ccncc3)ccc2O1`, the relative growth is inactive: 0.991.

In the case of `COc1ccc(NC(=O)Nc2ccc3c(c2)C(=O)N([C@@H](C)CO)C[C@H](C)[C@H](CN(C)C(=O)Cc2ccccc2)OCCCC[C@H](C)O3)cc1`, the relative growth is inactive: 1.04.

Consider `COc1cccc(-c2ccc3c(c2)O[C@@H](CN(C)C(=O)C2CC2)[C@@H](C)CN([C@@H](C)CO)S3(=O)=O)c1`, for which the relative growth was inactive: 1.01.

For the compound `C[C@@H]1CN([C@H](C)CO)C(=O)c2cc(NC(=O)CCCN(C)C)ccc2O[C@H]1CN(C)C(=O)Nc1ccc2c(c1)OCO2`, the relative growth is inactive: 1.02.

In the case of `COC(=O)C[C@H]1CC[C@H]2[C@H](COc3ccc(NS(=O)(=O)c4ccccc4Cl)cc3C(=O)N2C)O1`, the relative growth was inactive: 0.967.

In the case of `C[C@H](CO)N1C[C@H](C)[C@@H](CN(C)S(=O)(=O)c2ccccc2F)Oc2cc(-c3ccncc3)ccc2S1(=O)=O`, the relative growth is inactive: 1.03.

As for `C[C@H]1CN([C@@H](C)CO)C(=O)c2cccc(NC(=O)Nc3ccccc3)c2O[C@@H]1CN(C)S(=O)(=O)c1cn(C)cn1`, the relative growth was inactive: 0.977.

`C[C@@H]1CCCCO[C@H](CN(C)C(=O)Cc2ccccc2)[C@@H](C)CN([C@H](C)CO)C(=O)c2cc(NS(=O)(=O)c3ccc(F)cc3)ccc2O1`: the relative growth is inactive: 1.01.

Values taken from the supplement of paper PMC9446081.
